Source: the RNAGym collection of RNA variant scans (doi:10.7554/elife.90254)
The source gives no read counts; variants with many changes may rest on few reads.

B1: LINE1-full (parent)
chain: UACGUAGGUGGUUUUCCCCUGAUAGUGCUAAGGGGGCCUGGAAGUUUGGACUGGGCAGAGCUCAACACAGCGUGGCAAAGUGGCUGUGGCUAGACUGCCUCUCUGGAUUCCUCGUCACUCAGCAGGGCAUCUCUGAGAGAAAUGCC

Variants of: B1
Assay: self-cleavage, relative activity (ratio to wild type); higher = more cleavage; in vitro, sequencing; the parent is a self-cleaving ribozyme
In the case of A6G G40U U62A U100A U104C A141U, the self-cleavage is reported as 0.26. For A22G A50C U62A, the self-cleavage was 0.03. Work on A43G U73C A140G yielded a self-cleavage of 0. A65G U73A G88U U134C gave a self-cleavage of 0.01. Work on A6G G53U U112A yielded a self-cleavage of 0.66. For G106U C111A A140G, the self-cleavage was 1.23. Work on U46C A57U A64U U119A yielded a self-cleavage of 0.03. With U85C U112C A121U the self-cleavage was 0.17. In the case of U29C G60C U73A, the self-cleavage is reported as 0. Work on U13A C19U U96A yielded a self-cleavage of 0.11. G4U A64G A142G showed a self-cleavage of 0.28. Work on U9A A30C A136G yielded a self-cleavage of 0.95. Work on U119C G135U U143C yielded a self-cleavage of 0.04. With U15A A94G U130C the self-cleavage was 0.4. U29A A67G A107G gave a self-cleavage of 0. For A2G G34A U47A A50G G80A, the self-cleavage was 1.36. For U9C U87A C99U U130C A140G A142G, the self-cleavage was 0.12. U96A U109C U143G showed a self-cleavage of 0.11. With U1A U29C A64U U96C A107G A140G the self-cleavage was 0. U5C U15A U104C showed a self-cleavage of 1.15. Work on A57G A117U U134C yielded a self-cleavage of 1.91. U12C A121G A124U gave a self-cleavage of 1.84. U39C U46C U52C showed a self-cleavage of 0.81. With U45C G55U U100C the self-cleavage was 0.16. U20A A30G G34A U45A U143A gave a self-cleavage of 0.84. In the case of C18U A22G U47C, the self-cleavage is reported as 1.31. In the case of U12G A64G U134C, the self-cleavage is reported as 0.41. Work on A22G A42G A140G yielded a self-cleavage of 1.48. G49A U115C U134C A140G gave a self-cleavage of 1.03. Variant A57G C68U U102C has a self-cleavage of 0.05. For A22G U47A A129G, the self-cleavage was 1.18. For U23C A77G A138G, the self-cleavage was 2.89. A94G A124U G139A showed a self-cleavage of 0. In the case of U73A A92C U108C, the self-cleavage is reported as 0.12. Variant U102C C116U A138G has a self-cleavage of 1.09. In the case of A117U A136G A140G, the self-cleavage is reported as 1.41. For U45C U73A G88A, the self-cleavage was 0.07. Work on A6G U39A A141G yielded a self-cleavage of 0.98. G33A G97U A107G showed a self-cleavage of 0.02. A42G U73A A140G gave a self-cleavage of 1.18. For A30G U62C A140G, the self-cleavage was 0.42. Work on U62C A138G A140U yielded a self-cleavage of 0.05. U12G A42U U134A showed a self-cleavage of 0.38. A65U A79G U119C A136G showed a self-cleavage of 0.25. U14C U15C A65G U130A A141G showed a self-cleavage of 0.34. For U5C U46C A129G, the self-cleavage was 1.84. For U12C U46C A141G, the self-cleavage was 2.16. With U47C A77G A117U the self-cleavage was 1.93. A64G U102C C103U showed a self-cleavage of 0.11. With A124U A129U U130C C145G the self-cleavage was 1.44. For G10A U81C C113U, the self-cleavage was 1.33. For A24G U39C U46A A129G A142U, the self-cleavage was 0.61. With C19U A65G U130A A141G the self-cleavage was 0.07. For U47A U73C A121U, the self-cleavage was 1.61. U20C U134C U143A showed a self-cleavage of 1.31. In the case of C3U G7U U20A C51A, the self-cleavage is reported as 0.74. With G32A A43G A78G the self-cleavage was 0.93. In the case of U39C U52A U119C U130C C146U, the self-cleavage is reported as 1.61. A6G U23C U52A U130C gave a self-cleavage of 0.75. With U23C G55A U100C the self-cleavage was 0.17. U13C A67U A77U gave a self-cleavage of 0.09. In the case of U12G U26C U73C A121G, the self-cleavage is reported as 0. U15C A65G A136U showed a self-cleavage of 0.07. U26C U73A A92U A129G showed a self-cleavage of 0.68. In the case of A22G U47C G135A, the self-cleavage is reported as 0.99. With G41A G137U A142G the self-cleavage was 1.42. A117U U119A G135A gave a self-cleavage of 1.41. In the case of U62C U81C U96A U112C, the self-cleavage is reported as 0.06. In the case of G36C C66A U73C A77G, the self-cleavage is reported as 0.04. In the case of U15C U52C A57U U102C, the self-cleavage is reported as 0. U14C A142G U143C gave a self-cleavage of 1.67. With U26A A57U A67G U108C the self-cleavage was 0.33. Work on U29C U85C U108C yielded a self-cleavage of 0. Variant A50U A57G A121G has a self-cleavage of 0.61. Variant A2U U15C A50G U119C A124G C146U has a self-cleavage of 1.31. In the case of U5C U12C U73A, the self-cleavage is reported as 1.31. For U14C A42G U108C U115A A129G A140U, the self-cleavage was 1.02. For A43U U73C A77G U108C G127U, the self-cleavage was 2.45. For U13C U29C C51A U115A, the self-cleavage was 0.84. For G10A A50C U73A U96C, the self-cleavage was 0.11. For A22G A50U U132G, the self-cleavage was 1.04. With U1A U13C G32A A140G the self-cleavage was 1.33. For U1C U15C G72A U81A A136G, the self-cleavage was 1.61. In the case of C37U A64C U108A, the self-cleavage is reported as 0.36. For A77G C101G A124U, the self-cleavage was 1.99. G11A U52C U73C G74U gave a self-cleavage of 2.51. Variant U108C U119A A138G has a self-cleavage of 1.31. U39C A67G C120U showed a self-cleavage of 0.5. Variant U14C U45A U96G U112A A142G has a self-cleavage of 0.1. G21A A69G G89A gave a self-cleavage of 0.05. Work on U5A U108C U119A yielded a self-cleavage of 0.75. In the case of U13C U119C A124U U132A, the self-cleavage is reported as 1.41. For U12G U14C C19U, the self-cleavage was 1.43. With U15C U26A A92G U96C the self-cleavage was 0.66. In the case of U85A U104C U109A U132C A142G, the self-cleavage is reported as 0.34. Variant U1C U9C U26C U87C A138G has a self-cleavage of 0. For U96C A121C A140G, the self-cleavage was 0.18. With A42U A57U A77U the self-cleavage was 0.13. U9C U15A G40A showed a self-cleavage of 1.03. Work on A24G U45C G49A yielded a self-cleavage of 2.03. U20A G74A A78G gave a self-cleavage of 0.19. U26G U102C A140G showed a self-cleavage of 0. A22C A57U U108C C120A gave a self-cleavage of 0.71. In the case of A2G U14A U46C, the self-cleavage is reported as 2.91. Variant C17U U45C A59G U100A A138G has a self-cleavage of 0.17. A79G U87C A94G gave a self-cleavage of 0. With C19A A59G U62A A69U U81C the self-cleavage was 0. With A78G U102C U104C C113A U143C the self-cleavage was 2.18. Work on A2G U15C G33A C116U yielded a self-cleavage of 2.3. With U14C U15A U46C A129G the self-cleavage was 0.98. For U15C U26C U73A U96A U132C A140G U143A, the self-cleavage was 0.07. For A6G U87A G114A, the self-cleavage was 0.07. In the case of U12G U20C A42G U45A, the self-cleavage is reported as 1.51. Variant U9C U14C U26C has a self-cleavage of 0.61. Work on U12C U45C U85C yielded a self-cleavage of 0. In the case of U26C U39A U62C, the self-cleavage is reported as 0.03. For U13C A79G U108C U109C, the self-cleavage was 1.53. With U9C U13A U85C the self-cleavage was 0.34. In the case of C51G A64U A92G A124U, the self-cleavage is reported as 0.3. U5A U14C A64U U132G showed a self-cleavage of 0.63. Variant A43G A78G A124G has a self-cleavage of 0.43. Variant U14C U20C C61U has a self-cleavage of 0.16. U14A U20A A136G gave a self-cleavage of 1.29. For C19U A22G U52A U119C, the self-cleavage was 1.19. For U1C U12G U96A U108C A129G, the self-cleavage was 0. U45C A69C U132C gave a self-cleavage of 0.15. Work on U73C U108C A129G yielded a self-cleavage of 0.48. In the case of U1C G8A U46A, the self-cleavage is reported as 0.98. Work on A2G A24G A31U G41A U46C U119A U130C A141G yielded a self-cleavage of 1.84. With A31U U47C C123U the self-cleavage was 1.37. A22U A77U C110U gave a self-cleavage of 1.35. In the case of G60A A77G U102C, the self-cleavage is reported as 0.07. Work on A107G U115C A121U yielded a self-cleavage of 1.84. U15C A31U A129U A141U gave a self-cleavage of 0.49. In the case of G4A A6U U15C A43G U62C, the self-cleavage is reported as 0.84. Work on U14C U20C A79G U102C yielded a self-cleavage of 0. Work on U13C A107G A117U yielded a self-cleavage of 1.46. U12A U14C U45A U91A U104A showed a self-cleavage of 0.69. For U20C U81C A142G, the self-cleavage was 1.11. U26C G34U A65G U81C gave a self-cleavage of 0. For U14C A65G A69U A79G A129U, the self-cleavage was 0. With A57G C71U U87C the self-cleavage was 0.04. Work on U26C A129U A141G yielded a self-cleavage of 0.64. For A79G A121U A140G, the self-cleavage was 0.33. With U47A U115A A121G the self-cleavage was 1.65. Variant U26C A121G U143C has a self-cleavage of 0. In the case of U52A A77G A94G A121U, the self-cleavage is reported as 0.49. U14C C19G U52C U132A gave a self-cleavage of 1.17. U45C A94G U130C C145A gave a self-cleavage of 0.77. Work on G34A C37U A67C yielded a self-cleavage of 0.07. U26A U47A U73A A94G A124G showed a self-cleavage of 0.19. Work on A50G A77U G80A yielded a self-cleavage of 0.67. Work on U12C A78G G89U yielded a self-cleavage of 0.07. In the case of G4A U14C U29C A77G, the self-cleavage is reported as 1.19. For C37U U104A U134A, the self-cleavage was 0.87. In the case of A31G U52C U85G, the self-cleavage is reported as 0. For U73A A78G A124G, the self-cleavage was 0.26. With U14C A42U A79U A138G the self-cleavage was 0.89. Work on U5C G127U U143A yielded a self-cleavage of 1.06. Variant U85G U130C A141G has a self-cleavage of 0.2. With U45A U96A U132C the self-cleavage was 0.05. In the case of U13C U26C U112C, the self-cleavage is reported as 1.46. A22C U108C A124G showed a self-cleavage of 2.51. U14C G36A A57U gave a self-cleavage of 0.08. Work on A2C A31G G32U yielded a self-cleavage of 0.8. Variant A6G U39C U45A U100A has a self-cleavage of 0.88. U47G G127U U143C gave a self-cleavage of 0.76.
